Measured values published in the RNAGym collection of RNA variant scans (doi:10.7554/elife.90254).
Read counts are not given, so values of variants with three or more changes are uncertain.

B1: LINE1-mini (parent)
chain: GGCAGAGCUCAACACAGCGUGGCAAAGUGGCUGUGGCUAGACUGCC

Variants of: B1
Assay: self-cleavage, relative activity (ratio to wild type); higher = more cleavage; in vitro, sequencing; the parent is a self-cleaving ribozyme

Row | Variant | self-cleavage
1 | U20G G44A C46G | 0.04
2 | U20G G44C C46A | 0.06
3 | U20G U28A U38G | 0.02
4 | U20G U28C C31A G36A C42A | 0
5 | U20G U28C G30U | 2.58
6 | U20G U28C G40C U43G | 0.02
7 | U20G U28G A39U | 0.04
8 | U20G U28G C42U | 0.4
9 | U20G U32A G33C A39U | 0.06
10 | U20G U32C G35A | 0.05
11 | U20G U32G A39U | 0.07
12 | U20G U32G C45A | 0.05
13 | U20G U34A C45U | 0.01
14 | U20G U34A G44C | 0.02
15 | U20G U34C A41G | 0.03
16 | U20G U34C C37U G40U | 0.06
17 | U20G U34C U43G C46G | 0
18 | U20G U38A A41G G44U | 0.03
19 | G21A A24C C42A | 0.06
20 | G21A A24G C31U G36A | 0.04
21 | G21A A24U C31G | 0.12
22 | G21A A25C G29U | 0.93
23 | G21A A25C G40C | 0.02
24 | G21A A25G A26C U32A | 0.04

Row | Variant | self-cleavage
25 | G21A A25G G27C C46A | 0.54
26 | G21A A25U G29A A41G C42G | 0.12
27 | G21A A25U G33C C37U | 0.04
28 | G21A A26C G27A G30U | 0.33
29 | G21A A26G G29A A39U | 0.59
30 | G21A A26U G29U C42A G44A | 0.02
31 | G21A A39G G44A | 0.02
32 | G21A A41U C45G | 0.22
33 | G21A C23A A24G G29U | 0.61
34 | G21A C23A C37A C45G | 0.05
35 | G21A C23A U34G G44A C45G | 0.05
36 | G21A C23U C45A | 1.94
37 | G21A C31A U38G | 0.05
38 | G21A C31A U43C | 0.02
39 | G21A C31G G35U | 0.06
40 | G21A C31U C37U C46A | 0.03
41 | G21A C31U G33A | 0.14
42 | G21A C31U G36U | 0.52
43 | G21A C37U C45U | 0.05
44 | G21A C42U G44U | 0.09
45 | G21A G22A A25C G30C C37A U38G | 0.03
46 | G21A G22A G30U A41C | 0.05
47 | G21A G22A G30U C46U | 1.74
48 | G21A G22A G36C | 0.29

Row | Variant | self-cleavage
49 | G21A G22C C31A G36U C46G | 0.05
50 | G21A G22C C42G | 0.03
51 | G21A G22C G27A U38G A41G | 0.01
52 | G21A G22U A25G G30A U43G | 0.11
53 | G21A G22U C23A | 0.88
54 | G21A G22U G27C G30C | 1.29
55 | G21A G22U G30A C37G | 0.04
56 | G21A G22U G30C C37U | 0.2
57 | G21A G22U U28G G40A A41U | 0.08
58 | G21A G27A C31A | 2.73
59 | G21A G27A C37U A41C | 0.02
60 | G21A G27A G29A G36A | 0.21
61 | G21A G27C U28C | 1.14
62 | G21A G27C U34C | 0.1
63 | G21A G27U C31A | 0.21
64 | G21A G27U C31G | 1.13
65 | G21A G27U G30U U38C G40A | 0.16
66 | G21A G27U G36A | 0.17
67 | G21A G29C G35A G44U | 0.15
68 | G21A G29C G36U G40U C45U | 0.16
69 | G21A G29U C31A C46U | 0.04
70 | G21A G29U C37A A39G | 0.1
71 | G21A G29U G33C U38G G40C C45G | 0.04
72 | G21A G29U G40A | 0.13

Row | Variant | self-cleavage
73 | G21A G29U G40C | 0.26
74 | G21A G29U U38A | 1.44
75 | G21A G30A G33U G36U | 0.04
76 | G21A G30C G33U U38G C45G | 0.05
77 | G21A G30U C31A C37A C42G C46G | 0.02
78 | G21A G33A U38G A39C C42A | 0.04
79 | G21A G33C A39U C46U | 0.05
80 | G21A G33C C46A | 0.07
81 | G21A G33C G36C | 0.06
82 | G21A G33C U38G | 0.05
83 | G21A G33U A41U | 0.13
84 | G21A G35C U43G | 0.03
85 | G21A G35U C37U | 0.07
86 | G21A G35U G44U C45A | 0.15
87 | G21A G36C A39C | 0.07
88 | G21A G36U C42A | 0.11
89 | G21A G40C C42U | 0.21
90 | G21A G44U C45G | 0.37
91 | G21A U28A G33U A39G | 0.18
92 | G21A U28C C45U C46G | 1.19
93 | G21A U28G G30C U43G G44C | 0.26
94 | G21A U28G G40U | 0.22
95 | G21A U32A C37G | 0.03
96 | G21A U32A G35A U43C | 0.04

Row | Variant | self-cleavage
97 | G21A U32G G35U U38C | 0.06
98 | G21A U32G U43A | 0.09
99 | G21A U34C A39U | 0.11
100 | G21C A24C G27U G35A | 0.06
101 | G21C A24C G33A A39U U43A | 0.07
102 | G21C A24G C37A | 0.06
103 | G21C A24G G29C | 0.34
104 | G21C A24G G29U C37A | 0.02
105 | G21C A24U C37U | 0.03
106 | G21C A24U U28G G29U G44A | 0.01
107 | G21C A25C C42A G44A | 0.14
108 | G21C A25U U32A G33A G40A | 0.08
109 | G21C A26C U38A | 0.22
110 | G21C A26U G30C G40U | 0.05
111 | G21C A39C G44A | 0.06
112 | G21C A39U G40A | 0.07
113 | G21C A41C G44A C45A | 0.03
114 | G21C C23A A24C A25U | 0.06
115 | G21C C23A A26C G27C G44A C46A | 0.06
116 | G21C C23A A26U U32A U43A | 0.18
117 | G21C C23A A39C | 0.02
118 | G21C C23A A41C C42U C46A | 0.05
119 | G21C C23A C37U | 0.04
120 | G21C C23A G29U C42G | 0.03

Row | Variant | self-cleavage
121 | G21C C23U A24U C42U | 0.12
122 | G21C C23U U28C | 1.17
123 | G21C C31A A41U | 0.69
124 | G21C C31G C42G | 0.05
125 | G21C C31G U34A C46U | 0.01
126 | G21C C31U G40A | 0
127 | G21C C31U U32G C45G | 0.04
128 | G21C C37A C45A | 0.01
129 | G21C C37G C42G | 0.02
130 | G21C C37U A39U | 0.02
131 | G21C C37U A39U G40A C46G | 0
132 | G21C G22A C23U G29A C45U | 0.74
133 | G21C G22A C37U | 0.08
134 | G21C G22A C37U U38C C42U | 0.01
135 | G21C G22A U28C C31A C42G | 0
136 | G21C G22A U38C | 0.59
137 | G21C G22A U43G C45U | 0.03
138 | G21C G22C G27C U34A G36A | 0.07
139 | G21C G22C U32A G36A | 0.01
140 | G21C G22C U32C G35A | 0.06
141 | G21C G22U A24G | 2.96
142 | G21C G22U A25C G27U | 0.95
143 | G21C G22U G35C | 0.2
144 | G21C G22U G36A | 0.04

Row | Variant | self-cleavage
145 | G21C G22U U28G G30U G44U | 0.17
146 | G21C G27A G35A | 0.14
147 | G21C G27A U34G | 0.08
148 | G21C G27C C31U | 0.04
149 | G21C G27U C37A U38G | 0
150 | G21C G27U U28C A41G | 0.34
151 | G21C G29A C31A | 0.2
152 | G21C G29A C46A | 1.48
153 | G21C G29A U34A G36A | 0.05
154 | G21C G29C G33U C45A | 0.14
155 | G21C G29U G40U | 0.03
156 | G21C G29U U43A | 0.08
157 | G21C G30U C37A U43A | 0.03
158 | G21C G30U C37U | 0.01
159 | G21C G33C A39U C42U | 0.02
160 | G21C G35A A41C | 0.05
161 | G21C G35U U38G | 0.03
162 | G21C G36C C37G | 0.02
163 | G21C G40C C42G C45G | 0.04
164 | G21C G40U C45G | 0.05
165 | G21C G40U U43G | 0.03
166 | G21C U28C C37A G44U | 0.05
167 | G21C U28G C31U | 0.92
